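Five concentrations, 48 hours, 96-well plates. Here, GI50 denotes the concentration required for 50% inhibition of growth.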 The source made the active and inactive calls. Cut-off read from the data, not from the text of the source: active = GI50 up to about 1.1 µM and inactive = higher.

The assay relates to NCI-H322M. The experiment in a line: inhibition of tumour cell growth, NCI panel, 48 h.
On to `S=C(Nc1ccc2cn[nH]c2c1)Nc1ccc2cn[nH]c2c1`, for which the GI50 is inactive: > 100 µM. Then `CC(C)(C)CC(C)(C)c1ccc(O)c(C[N+](C)(C)[O-])c1`, with inactive: > 100 µM. Under `COc1ccc(C[C@@H]2OC3(C=CC(=O)C=C3)O[C@H]2Cc2ccc(OC)cc2)cc1` stands inactive: 13.2 µM; under `CC(C)(C)C1CCC2c3c([nH]c4ccccc34)C3C(=O)N(c4ccc(Cl)cc4)C(=O)C3C2C1` (centres undefined), inactive: > 10 µM. Regarding `CCS(CC)(CC)CC1CCCC2=CCC(P(=O)(c3ccccc3)c3ccccc3)CC21` (centres undefined), the GI50 is inactive: 12.1 µM. Then `COC(=O)/C=C1/OC(c2ccc(C)cc2C)=CC1=O`, with inactive: 18.6 µM; and `CC1(C)CCC(=O)c2c(O)ccc(O)c21`, with inactive: > 100 µM; and `C1=N\CCNCCNCC/N=C\c2ccc(cc2)OCc2cccc(n2)COc2ccc/1cc2`, with inactive: > 100 µM.

`CC1=NN(C2=NS(=O)(=O)c3ccccc3N2C)C(=O)C1`: the GI50 is inactive: > 100 µM.

Regarding `COc1cc(/C=C2\C(=O)N(c3ccccc3Cl)C(c3ccccc3)S2(=O)=O)cc(OC)c1OC` (centres undefined), the GI50 is inactive: 46.5 µM. Under `COc1ccc(C(=O)C(c2ccc(OC)cc2)C2(O)C(=O)Nc3c(Cl)cc(Cl)cc32)cc1` (centres undefined) stands inactive: 20.6 µM; under `COC(OC)c1cccnc1C`, inactive: > 100 µM; under `Cc1nc(N)sc1C(=O)/C=C/c1ccc([N+](=O)[O-])cc1`, inactive: > 100 µM. Then `CC(=O)Oc1cc2c(n(C)c1=O)-c1ccccc1C2`, with inactive: > 100 µM; and `COc1cc2c(c(O)c1OC)C(O)C1CCC(=O)N1C2c1cccc2ccccc12` (centres undefined), with inactive: > 100 µM.

As for `Br/C(=N\N=c1/nn[nH][nH]1)c1ccncc1`, the GI50 was inactive: > 100 µM. On to `O=c1c2cc(-c3ccccc3)cnc2sn1-c1ccc(Br)cc1`, for which the GI50 is inactive: > 100 µM. Under `COc1ccc2c3c1OC1C(OC)(OC)CC4(C=C2)CN(C)CCC314` (centres undefined) stands inactive: > 100 µM; under `Clc1ccc2nc3[nH]nc(Cl)c3nc2c1`, inactive: 39.4 µM. Take `Cc1ccc(N2C(=O)/C(=C3\Sc4c(nc(C)[nH]c4=O)N3c3ccccc3)SC2=S)cc1`: the GI50 was inactive: > 100 µM. Under `COc1ccc2nccc(C3OC(=O)N4CCC(=O)CC34)c2c1` (centres undefined) stands inactive: > 100 µM; under `Clc1ccc(/N=N/c2nc3ccccc3nc2/N=N/c2ccc(Cl)cc2Cl)c(Cl)c1`, inactive: > 100 µM.

Take `O=C1NC(=O)C23C(=O)NC(=O)C12C1C=CC3CC1` (centres undefined): the GI50 was inactive: > 10 µM. On to `CC(C)N1CC2CC(CN(C(=O)c3ccccc3)C2)C1.[O-][Cl+3]([O-])([O-])O`, for which the GI50 was inactive: > 100 µM. Then `COc1cc(NC(C)=O)ccc1C(=O)N/N=C/c1ccc(Cl)cc1Cl`, with inactive: 44 µM. Under `CC1(C)OC(CCO)CN1C(=O)OCc1ccccc1` (centres undefined) stands inactive: > 100 µM; under `COc1ccc(/C=C2\N=C(N3CCOCC3)NC2=O)cc1`, inactive: > 100 µM. With `CCOC(=O)[C@@]1(C)CC(O)C(=O)N1C` (some centres undefined), the GI50 is inactive: > 100 µM. Under `C/C(=N/NC(=S)N(C)C)c1ccccc1O` stands inactive: 12.6 µM; under `CC(NC1=CC(=O)c2cccnc2C1=O)C(O)c1ccccc1` (centres undefined), inactive: 1.99 µM; under `C/C(=N/NC(=O)c1ccncc1)c1ccc(NC(=O)C(=O)Nn2c(S)nc3ccccc3c2=O)cc1`, inactive: > 100 µM. Then `O=C1c2cc([N+](=O)[O-])sc2C(=O)c2cc([N+](=O)[O-])sc21`, with inactive: 10 µM. Under `CCC(C)(C)NS(=O)(=O)c1ccccc1` stands inactive: > 100 µM; under `O=C1c2ccccc2OP(=O)(OCC(F)(F)F)OC1(C(F)(F)F)C(F)(F)F` (centres undefined), inactive: > 100 µM; under `CCOC(=O)C(=O)Nc1c(C)cccc1C`, inactive: > 100 µM. As to `O=C(O)[C@@H]1CCC(=O)N1C(c1ccc2c(c1)OCO2)c1ccc2c(c1)OCO2`, the GI50 is inactive: > 100 µM.

For `CC(=O)OCC1OC(n2c(=O)n(-c3ccccc3)c(=O)c3cc(Br)cc(Br)c32)C(OC(C)=O)C(OC(C)=O)C1OC(C)=O` (centres undefined), the GI50 is inactive: > 100 µM. Then `COc1cc(C(CC(OC)OC)=C(C#N)C#N)cc(OC)c1OC`, with inactive: 17.3 µM. Take `Cc1nc2ccc([N+](=O)[O-])cc2c(=O)n1C(=S)Nc1cccc(Cl)c1`: the GI50 is inactive: 20.7 µM.

Take `CCc1cc(C)cc2[n+]1CC=C2.[O-][Cl+3]([O-])([O-])[O-]`: the GI50 is inactive: > 100 µM. As to `O=c1c2ccccc2n2n1CC(O)C2` (centres undefined), the GI50 was inactive: > 100 µM. Then `COC1OC(CO)C(O)C1N` (centres undefined), with inactive: > 100 µM; and `CS(=O)(=O)Nc1ccc2c(c1)oc(=O)c1ccccc12`, with inactive: > 100 µM. Regarding `COC(=O)c1ccc(/C=N/c2cc(C)nn2-c2ccccc2)cc1`, the GI50 was inactive: 46.2 µM. Then `NC(=O)c1nnsc1NN=O`, with inactive: > 100 µM; and `Cn1c(=O)oc2cc(C(O)CN3CCN(Cc4ccccn4)CC3)c(Cl)cc21` (centres undefined), with inactive: > 100 µM.

`NC(CS)C(=O)NCCNc1ccc(NCCNC(=O)C(N)CS)c2c1C(=O)c1c(O)ccc(O)c1C2=O` (centres undefined): the GI50 is active: 0.263 µM. Consider `O=C(Sc1c(-c2ccccc2)c(=O)n(-c2ccccc2)c(=S)n1-c1ccccc1)c1cccs1`, for which the GI50 was inactive: > 100 µM. Under `CC1C/C(=N\N(C)C)C(C#N)(C#N)C1(C#N)C#N` (centres undefined) stands inactive: > 42.5 µM; under `COc1cccc2c1C(=O)c1c(O)c3c(c(O)c1C2=O)C[C@@](O)(C(=O)CO)C[C@@H]3OC1CC(N)CC(C)O1` (some centres undefined), active: 0.0412 µM; under `COC(=O)C(=O)C(C(=O)C(=O)Nc1cc([N+](=O)[O-])ccc1[N+](=O)[O-])c1nc2ccc(C(=O)c3ccccc3)cc2nc1O` (centres undefined), inactive: 88.1 µM. Under `CCCOC(=O)NC(C)C(=O)NC(CCC(=O)NC(CCCC(N)C(=O)O)C(=O)NC(C)C(=O)O)C(=O)O` (centres undefined) stands inactive: 19.9 µM; under `O=C(Cc1ccccc1)N/N=C(\C1=Nc2ccc([N+](=O)[O-])cc2NC1O)C(O)c1ccc([N+](=O)[O-])cc1` (centres undefined), inactive: > 100 µM.

As for `NC(=O)c1csc(C2(O)COC(CO)C2O)n1` (centres undefined), the GI50 was inactive: > 100 µM. Under `Nc1nc2c(c(-c3cccc(Cl)c3)n1)COC/C2=C\c1cccc(Cl)c1` stands inactive: > 100 µM. Under `OCCN(/N=C\c1ccc2ccccc2c1)C1=NCCN1` stands inactive: 29.3 µM.

On to `O=c1cc(-c2ccccc2)oc2c(-c3cc(Cl)cc4c(=O)cc(-c5ccccc5)oc34)cc(Cl)cc12`, for which the GI50 was inactive: 20.8 µM. Then `Cc1c(C(=O)/C=C/c2ccco2)[n+]([O-])c2ccccc2[n+]1[O-]`, with inactive: > 100 µM; and `Nc1nc(N)c2c(CCc3ccc(C(=O)N[C@@H](CCC(=O)O)C(=O)O)cc3)ccnc2n1`, with active: 0.245 µM. Then `NCc1ccccc1-c1c2nc(c(-c3ccccc3CN)c3ccc([nH]3)c(-c3ccccc3CN)c3nc(c(-c4ccccc4CN)c4ccc1[nH]4)C=C3)C=C2`, with inactive: 16.1 µM; and `CCOC(=O)c1cc(C2(OC)CCN(Cc3ccccc3)C2=O)c(-c2cc(C)no2)[nH]1` (centres undefined), with inactive: > 100 µM; and `CC1OC(OC2C(O)COC(OC3C(C)OC(OC4C(OC(=O)[C@]56CCC(C)(C)C[C@@H]5C5=CCC7[C@@]8(C)C[C@H](O)[C@H](OC9OC(CO)C(O)C(O)C9O)[C@@](C)(CO)[C@@H]8CC[C@@]7(C)[C@]5(C)CC6)OCC(O)C4O)C(O)C3O)C2O)C(O)C(O)C1O` (some centres undefined), with inactive: 17.8 µM. As for `O=C(OC1OC2COC(=O)c3cc(O)c(O)c(O)c3-c3c(cc(O)c(O)c3O)C(=O)OC3C2OC(=O)[C@@]24CC(=O)[C@@](O)(OC25C(=O)O[C@H]2[C@@H](O)CO[C@@]25O)C2(O)Oc5c(O)c(O)cc(c5C24)C(=O)OC13)c1cc(O)c(O)c(O)c1` (some centres undefined), the GI50 was inactive: 20.8 µM. Then `Nc1nc(-[n+]2ccc(-c3ccncc3)cc2)nc(Cl)c1Cl`, with inactive: > 100 µM; and `Cn1/c(=N\c2ccccc2[N+](=O)[O-])sc2ccccc21`, with inactive: 83.6 µM. Under `Cc1ccnc(NC(=S)Nc2cccc(Cl)c2)c1` stands inactive: > 100 µM.

Regarding `CCN(CC)CCCNC(=O)c1cc2cc(NC(=O)c3cc4cc([N+](=O)[O-])ccc4[nH]3)ccc2[nH]1`, the GI50 was inactive: > 100 µM. Under `O=C(N/C(=C\c1ccc(Br)cc1)c1nc2ccccc2[nH]1)c1ccccc1` stands inactive: 19.6 µM; under `O=C1O/C(=C(\Br)c2ccc([N+](=O)[O-])cc2)c2ccccc21`, inactive: > 100 µM.

Consider `O=C(O)C(Cc1c[nH]c2ccccc12)C(=O)NO` (centres undefined), for which the GI50 is inactive: > 100 µM.

Turning to `O=C(/C=N/c1ccccc1C(=O)O)c1cccs1`, the GI50 was inactive: 18.7 µM.

As to `CCC(C)C1NC(=O)C(NC(=O)C(CC(C)C)N(C)C(=O)[C@@H]2CC(O)CN2C(=O)[C@H](C)O)C(C)OC(=O)[C@H](Cc2ccc(OC)cc2)N(C)C(=O)[C@@H]2CCCN2C(=O)[C@H](CC(C)C)NC(=O)C(C)C(=O)[C@H](C(C)C)OC(=O)CC1O` (some centres undefined), the GI50 was active: 0.179 µM.

For `C=C[C@@]1(C)CC2CC[C@]3(C)C(C)=CC(=O)CC3[C@]2(C)CC1O` (some centres undefined), the GI50 is inactive: > 100 µM. Then `O=C(Oc1cccc2cccnc12)c1cc2cc(CCl)ccc2oc1=O`, with inactive: 30 µM. `CCCCC/C=C1/CC(CO)(COC(=O)CC(C(C)C)C(C)C)OC1=O` (centres undefined): the GI50 is inactive: 18.1 µM. Under `CCN(CC)CCOc1ccc(C(O)(Cc2ccc(OC)cc2)c2ccccc2)cc1` (centres undefined) stands inactive: 35.6 µM; under `O=C(NC1CCN(Cc2ccccc2)CC1)c1ccc(I)cc1`, inactive: > 100 µM; under `c1ccc2c(c1)c1c(c3ccccc32)CN2CCCC2C1` (centres undefined), inactive: 4.13 µM. Under `COc1cccc(-c2cc(O)c3cc(Cl)cnc3n2)c1` stands active: 0.728 µM.

The values above are taken from ChEMBL document CHEMBL1201862, “PubChem BioAssay data set” (2004).
